Source: the supplement of paper PMC5499739
In all, about 16,000 sequences were measured (“Z-score”: median about -0.37, highest 2% from about 3.1 on). The list shows a part of the results.

System: RBM10 RRM1-ZnF-RRM2 (GST-tagged construct)
Experiment: RNAcompete 7-mer binding Z-score; higher = stronger binding preference
Method in brief: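 A designed pool of 241 399 RNAs, each up to 41 nt and transcribed from microarray-derived DNA templates, was used at 1.5 nmol with 20 pmol of GST-tagged RBM10 constructs. The mixture, in 1 ml Hepes pH 7.8 buffer with KCl, NaCl, glycerol, DTT, BSA and glutathione Sepharose beads, was held 30 min at 4°C and then washed four times for 2 min at 4°C. Bound RNA was read out by microarray hybridisation, and enrichment of each heptamer motif was scored as a one-sided Z-score over the probes carrying it.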

Compared with UGUAACG, UUCGAGG is higher in “RNAcompete 7-mer binding Z-score” value: -0.169 for the first, 0.297 for the second.

Going from CAGGUAU to UACAGUC, the “RNAcompete 7-mer binding Z-score” value falls from 0.822 to -0.278.

Compared with GAGUUCG, UCCCAUC is lower in “RNAcompete 7-mer binding Z-score” value: -0.0161 for the first, -0.613 for the second.

Going from UUACUCA to GCUCGAG, the “RNAcompete 7-mer binding Z-score” value rises from -0.664 to -0.0488.

First: GGGUGUC
Second: CAGACUU
The “RNAcompete 7-mer binding Z-score” value of the first is higher: 2.11 for the first, -0.872 for the second.

First: AUCUGCU
Second: CGCAAGC
The “RNAcompete 7-mer binding Z-score” value of the first is lower: -0.876 for the first, -0.548 for the second.

Going from GUGGUAC to GUUUUGU, the “RNAcompete 7-mer binding Z-score” value falls from 1.25 to 0.024.

First: GCUUCCA
Second: UGAGUUA
The “RNAcompete 7-mer binding Z-score” value of the first is lower: -0.726 for the first, 0.0204 for the second.

Going from GCUACUG to GAUGAUC, the “RNAcompete 7-mer binding Z-score” value rises from -0.38 to -0.238.

First: GCGACGG
Second: GUGACGG
The “RNAcompete 7-mer binding Z-score” value of the first is lower: 1.59 for the first, 2.15 for the second.

Going from AUUUCAG to GUGUUGA, the “RNAcompete 7-mer binding Z-score” value rises from -0.526 to 0.41.

First: GUGACAC
Second: UACCCGU
The “RNAcompete 7-mer binding Z-score” value of the first is higher: -0.0707 for the first, -0.737 for the second.

Going from GGUAAAG to GACCCUU, the “RNAcompete 7-mer binding Z-score” value falls from 3.35 to -1.

Compared with UAUCUCU, AGUCUGG is higher in “RNAcompete 7-mer binding Z-score” value: -0.766 for the first, 0.0641 for the second.

Going from CACAACU to AUUGUCU, the “RNAcompete 7-mer binding Z-score” value falls from -0.668 to -0.77.

Compared with CUACUAC, CUAUUUA is lower in “RNAcompete 7-mer binding Z-score” value: -0.865 for the first, -0.901 for the second.

Going from GUGCGCG to GCAACAG, the “RNAcompete 7-mer binding Z-score” value falls from 0.712 to 0.348.

First: CGACUGG
Second: ACUCCUG
The “RNAcompete 7-mer binding Z-score” value of the first is higher: 0.192 for the first, -0.744 for the second.

Going from GUGGGGU to AUUCACC, the “RNAcompete 7-mer binding Z-score” value falls from 4.45 to -0.697.

Going from CGCUCUC to CCCGGUG, the “RNAcompete 7-mer binding Z-score” value rises from -0.602 to 0.104.

First: AGGUAUA
Second: CAUAGCU
The “RNAcompete 7-mer binding Z-score” value of the first is higher: 1.24 for the first, -0.675 for the second.

Compared with UCAUGUG, CCUAGCU is lower in “RNAcompete 7-mer binding Z-score” value: -0.235 for the first, -0.857 for the second.

Going from UGCCAAA to ACCUGGU, the “RNAcompete 7-mer binding Z-score” value falls from -0.617 to -0.73.

First: CACGCUC
Second: GUUCGGU
The “RNAcompete 7-mer binding Z-score” value of the first is lower: -0.541 for the first, 0.148 for the second.

First: CCCAAUG
Second: UCUCGAA
The “RNAcompete 7-mer binding Z-score” value of the first is higher: -0.595 for the first, -0.624 for the second.

Going from GCUGAUG to CUUGUUG, the “RNAcompete 7-mer binding Z-score” value falls from 0.0641 to -0.799.

First: UUGACCC
Second: ACUGAGU
The “RNAcompete 7-mer binding Z-score” value of the first is lower: -0.701 for the first, -0.107 for the second.

Going from CAGUAAG to AUGAGUA, the “RNAcompete 7-mer binding Z-score” value rises from 0.461 to 0.672.

Going from CGAUGGC to GUACGGG, the “RNAcompete 7-mer binding Z-score” value rises from 0.618 to 2.96.

Going from AGCGACA to GAGUGAG, the “RNAcompete 7-mer binding Z-score” value rises from 0.374 to 2.04.

Compared with AAGUAUU, GCUUAGG is higher in “RNAcompete 7-mer binding Z-score” value: -0.344 for the first, 0.217 for the second.

Compared with AGAUCAC, CGGCCAU is lower in “RNAcompete 7-mer binding Z-score” value: -0.799 for the first, -0.85 for the second.

Compared with UAGUAUC, UCAUUAU is lower in “RNAcompete 7-mer binding Z-score” value: -0.424 for the first, -0.621 for the second.

First: GAGUGGU
Second: AAAGCAA
The “RNAcompete 7-mer binding Z-score” value of the first is higher: 2.52 for the first, 0.563 for the second.

Compared with GAGAGGC, GUUCUGA is lower in “RNAcompete 7-mer binding Z-score” value: 1.11 for the first, -0.522 for the second.

First: ACACUCA
Second: UUAAGUC
The “RNAcompete 7-mer binding Z-score” value of the first is lower: -0.686 for the first, -0.562 for the second.

Compared with CGAUUUU, GCCCCAA is higher in “RNAcompete 7-mer binding Z-score” value: -0.799 for the first, -0.653 for the second.

Compared with CUCACAC, ACUUACG is lower in “RNAcompete 7-mer binding Z-score” value: -0.686 for the first, -0.723 for the second.

Going from AUAUUAG to GUUUUUG, the “RNAcompete 7-mer binding Z-score” value falls from 0.0313 to -0.125.

First: CCCGUCA
Second: UGCUGCA
The “RNAcompete 7-mer binding Z-score” value of the first is lower: -0.683 for the first, -0.464 for the second.

Going from AGUGUAU to GUAUAUG, the “RNAcompete 7-mer binding Z-score” value falls from 0.479 to 0.195.

First: CAUCACA
Second: GAAUGUU
The “RNAcompete 7-mer binding Z-score” value of the first is lower: -0.639 for the first, -0.0306 for the second.

First: AAAGGAC
Second: CAUCCUU
The “RNAcompete 7-mer binding Z-score” value of the first is higher: 2.6 for the first, -0.832 for the second.

First: CAUUAGU
Second: AGUCUCU
The “RNAcompete 7-mer binding Z-score” value of the first is higher: -0.347 for the first, -0.679 for the second.

First: CGUCCUA
Second: UUCCUGU
The “RNAcompete 7-mer binding Z-score” value of the first is higher: -0.759 for the first, -0.843 for the second.

Compared with AGUUGGG, CGGCUCU is lower in “RNAcompete 7-mer binding Z-score” value: 2.77 for the first, -0.73 for the second.

Going from UAAGCCU to GACGGCU, the “RNAcompete 7-mer binding Z-score” value rises from -0.879 to -0.417.

Going from UCUUGCA to GCAUAUG, the “RNAcompete 7-mer binding Z-score” value rises from -1.05 to 0.294.

Going from GGUGCCG to AACCGCC, the “RNAcompete 7-mer binding Z-score” value falls from 1.01 to -0.868.

First: UUUAUGC
Second: CCAGUUC
The “RNAcompete 7-mer binding Z-score” value of the first is lower: -0.792 for the first, -0.726 for the second.

Compared with GGGUUGU, ACGGACC is lower in “RNAcompete 7-mer binding Z-score” value: 1.97 for the first, 0.0677 for the second.

Compared with UUACCUG, CCUGGCU is higher in “RNAcompete 7-mer binding Z-score” value: -0.766 for the first, -0.73 for the second.

Compared with UGCAGGU, AGUAGAC is lower in “RNAcompete 7-mer binding Z-score” value: 0.982 for the first, 0.286 for the second.

First: UUUUUGU
Second: UCCCCAA
The “RNAcompete 7-mer binding Z-score” value of the first is higher: -0.628 for the first, -0.639 for the second.

Compared with GGUCCCG, GAUCAAU is lower in “RNAcompete 7-mer binding Z-score” value: 0.286 for the first, 0.0823 for the second.

First: CUCUCGA
Second: UCUGAUG
The “RNAcompete 7-mer binding Z-score” value of the first is lower: -0.719 for the first, -0.661 for the second.

Going from UAACCAU to CAGAAAU, the “RNAcompete 7-mer binding Z-score” value falls from -0.526 to -0.628.

First: GUCGGGA
Second: CGGCCAA
The “RNAcompete 7-mer binding Z-score” value of the first is higher: 1.31 for the first, -0.369 for the second.

Compared with CGUACGG, AAACUAC is lower in “RNAcompete 7-mer binding Z-score” value: 0.672 for the first, -0.475 for the second.

First: GGUACCA
Second: UAAUGUU
The “RNAcompete 7-mer binding Z-score” value of the first is higher: 0.891 for the first, -0.366 for the second.

First: UAUAAGA
Second: CUAUAAG
The “RNAcompete 7-mer binding Z-score” value of the first is higher: -0.18 for the first, -0.282 for the second.

Compared with ACAAUUC, CGCCGAA is higher in “RNAcompete 7-mer binding Z-score” value: -0.661 for the first, -0.646 for the second.

Compared with GGCUGCG, CAGGUCA is lower in “RNAcompete 7-mer binding Z-score” value: 0.884 for the first, 0.53 for the second.

Compared with CGGCCGC, CAGCCAG is higher in “RNAcompete 7-mer binding Z-score” value: -0.49 for the first, -0.3 for the second.

Compared with ACGUCUA, GCUCCGA is lower in “RNAcompete 7-mer binding Z-score” value: -0.632 for the first, -0.65 for the second.

Compared with ACUAGUC, GCAACGC is higher in “RNAcompete 7-mer binding Z-score” value: -0.544 for the first, -0.0379 for the second.

Compared with GAUAUAU, CAUAGAA is higher in “RNAcompete 7-mer binding Z-score” value: -0.078 for the first, 0.0495 for the second.

Going from CGUACCA to UUAUAUU, the “RNAcompete 7-mer binding Z-score” value falls from -0.504 to -0.639.

Going from AUACGGA to UGUGCAC, the “RNAcompete 7-mer binding Z-score” value falls from 1.33 to -0.224.

UGAUUGC and UAUGUAA are the same in “RNAcompete 7-mer binding Z-score” value: -0.38 for the first, -0.38 for the second.

Going from UCGACCU to AAAGUGA, the “RNAcompete 7-mer binding Z-score” value rises from -0.85 to 1.05.

Going from UUUGAAU to ACUCUCC, the “RNAcompete 7-mer binding Z-score” value falls from -0.639 to -0.806.

First: UACAUUU
Second: UCUCUCG
The “RNAcompete 7-mer binding Z-score” value of the first is higher: -0.646 for the first, -0.814 for the second.

Going from AUUGCAC to CAACCUU, the “RNAcompete 7-mer binding Z-score” value falls from -0.49 to -0.963.

Going from UCCUGGU to AUUUUUU, the “RNAcompete 7-mer binding Z-score” value falls from -0.548 to -0.788.

First: AGGACGA
Second: UUCUACA
The “RNAcompete 7-mer binding Z-score” value of the first is higher: 0.778 for the first, -0.719 for the second.

First: UGUAUCG
Second: CUUCAAU
The “RNAcompete 7-mer binding Z-score” value of the first is higher: -0.417 for the first, -0.723 for the second.

Compared with GACCUCC, AAAAUCC is higher in “RNAcompete 7-mer binding Z-score” value: -0.938 for the first, -0.57 for the second.

First: GGUAGUA
Second: UUGCUGC
The “RNAcompete 7-mer binding Z-score” value of the first is higher: 1.23 for the first, -0.632 for the second.

Going from GAACAUA to GCCCGGC, the “RNAcompete 7-mer binding Z-score” value falls from -0.26 to -0.457.

Going from UGACUGA to CCAGUCC, the “RNAcompete 7-mer binding Z-score” value falls from -0.103 to -0.832.

Going from UUAGCUU to GAACCAC, the “RNAcompete 7-mer binding Z-score” value rises from -0.661 to -0.446.

First: CGCCCUC
Second: UUCGACU
The “RNAcompete 7-mer binding Z-score” value of the first is lower: -0.708 for the first, -0.694 for the second.

First: CAUUAAA
Second: ACUAGAU
The “RNAcompete 7-mer binding Z-score” value of the first is lower: -0.515 for the first, -0.42 for the second.

Compared with CCUUUUG, UAAUGGC is higher in “RNAcompete 7-mer binding Z-score” value: -0.959 for the first, 0.377 for the second.

Compared with GUUGGUG, CUAAGCU is lower in “RNAcompete 7-mer binding Z-score” value: 2.12 for the first, -0.854 for the second.

Compared with UGGCUCC, GGAGAAC is higher in “RNAcompete 7-mer binding Z-score” value: -0.588 for the first, 1.93 for the second.

First: AUGAUUG
Second: CUUUUUC
The “RNAcompete 7-mer binding Z-score” value of the first is higher: 0.323 for the first, -0.748 for the second.

Going from UAAAGCC to GUGAUAU, the “RNAcompete 7-mer binding Z-score” value rises from -0.661 to 0.151.

Compared with GGACGAA, ACGAGUU is lower in “RNAcompete 7-mer binding Z-score” value: 0.986 for the first, -0.0343 for the second.

Going from AGCCCCA to CUUGGAA, the “RNAcompete 7-mer binding Z-score” value rises from -0.639 to -0.00877.

For UACCUGC, the “RNAcompete 7-mer binding Z-score” value was -0.887.
